Measurements taken from the supplement of paper PMC10037445.
The full ranking holds about 2,900 compounds; the median of “NF-kB SEAP reporter activity, fold change vs agonist alone” is about 0.99, and the highest 2% start at about 2.6. The list shows a part of the results.

Columns and labels:
RAW-Dual [1] = test: NF-kB SEAP reporter activity, fold change vs agonist alone; higher = enhanced NF-kB activity
Summary of the method: (§1)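 Supernatant from RAW-Dual macrophages was read after 20 hours for IRF by QuantiLuc luminescence and for NF-κB by QuantiBlue absorbance at 620 nm. The cells (50,000 cells/well in DMEM, 384-well plates, 37 °C, 5% CO2) had received 50 nL of library stock by pin tool and, 1 h later, a PRR agonist. Reporter activity is expressed relative to agonist-alone wells as fold change, and wells were flagged cytotoxic if IncuCyte confluency was under 70% of agonist controls in both mask sets.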

RAW-Dual [2] = test: NF-kB SEAP reporter activity, fold change vs agonist alone; cytotoxicity flag (confluency mask): not cytotoxic; higher = enhanced NF-kB activity
Summary of the method: as §1

RAW-Dual [3] = test: NF-kB SEAP reporter activity, fold change vs agonist alone; cytotoxicity flag (confluency mask): cytotoxic (confluency <70% of control); higher = enhanced NF-kB activity
Summary of the method: as §1

[4] = library stock concentration (final ~1000-fold dilution): 10 mM, cytotoxicity flag (confluency mask): not cytotoxic, agonist: Imiquimod (TLR7) […]
[5] = library stock concentration (final ~1000-fold dilution): 10 mM, cytotoxicity flag (confluency mask): not cytotoxic, agonist: MPLA (TLR4) […]
[6] = agonist: ODN 1826 (TLR9) 0.5 ug/mL
[7] = agonist: Pam2CSK4 (TLR2/6) 0.1 ug/mL
[8] = agonist: Pam3CSK4 (TLR2/1) 0.1 ug/mL

Cl.Cl.c1ccc(C2CC2NC2CCNCC2)cc1 (centres undefined)
NF-kB SEAP reporter activity (RAW-Dual [1]; [4]): 1.05
NF-kB SEAP reporter activity (RAW-Dual [1]; [5]): 1

Cl.Cl.c1ccc(C2CC2NC2CCNCC2)cc1 (centres undefined) (library stock concentration (final ~1000-fold dilution): 10 mM)
NF-kB SEAP reporter activity (RAW-Dual [2]; agonist: LPS (TLR4) 0.1 ug/mL): 0.855
NF-kB SEAP reporter activity (RAW-Dual [2]; [6]): 0.541
NF-kB SEAP reporter activity (RAW-Dual [2]; [7]): 0.831
NF-kB SEAP reporter activity (RAW-Dual [2]; [8]): 1.31

CN1C2CCC1CC(OC(=O)C(CO)c1ccccc1)C2.CN1C2CCC1CC(OC(=O)C(CO)c1ccccc1)C2.O.O=S(=O)(O)O (centres undefined)
NF-kB SEAP reporter activity (RAW-Dual [1]; [4]): 0.838
NF-kB SEAP reporter activity (RAW-Dual [1]; [5]): 0.986

CN1C2CCC1CC(OC(=O)C(CO)c1ccccc1)C2.CN1C2CCC1CC(OC(=O)C(CO)c1ccccc1)C2.O.O=S(=O)(O)O (centres undefined) (library stock concentration (final ~1000-fold dilution): 10 mM)
NF-kB SEAP reporter activity (RAW-Dual [2]; agonist: LPS (TLR4) 0.1 ug/mL): 0.923
NF-kB SEAP reporter activity (RAW-Dual [2]; [6]): 0.83
NF-kB SEAP reporter activity (RAW-Dual [2]; [7]): 0.79
NF-kB SEAP reporter activity (RAW-Dual [2]; [8]): 1.05

Br.C[N+]1([O-])C2CC(OC(=O)C(CO)c3ccccc3)CC1C1OC12.O (centres undefined)
NF-kB SEAP reporter activity (RAW-Dual [1]; [4]): 0.911
NF-kB SEAP reporter activity (RAW-Dual [1]; [5]): 1.07

Br.C[N+]1([O-])C2CC(OC(=O)C(CO)c3ccccc3)CC1C1OC12.O (centres undefined) (library stock concentration (final ~1000-fold dilution): 10 mM)
NF-kB SEAP reporter activity (RAW-Dual [2]; agonist: LPS (TLR4) 0.1 ug/mL): 0.936
NF-kB SEAP reporter activity (RAW-Dual [2]; [6]): 0.963
NF-kB SEAP reporter activity (RAW-Dual [2]; [7]): 1.05
NF-kB SEAP reporter activity (RAW-Dual [2]; [8]): 0.659

BrC1C(Br)C(Br)C(Br)C(Br)C1Br (centres undefined)
NF-kB SEAP reporter activity (RAW-Dual [1]; library stock concentration (final ~1000-fold dilution): 2 mM, cytotoxicity flag (confluency mask): not cytotoxic, agonist: Imiquimod (TLR7) […]): 0.613
NF-kB SEAP reporter activity (RAW-Dual [1]; library stock concentration (final ~1000-fold dilution): 2 mM, cytotoxicity flag (confluency mask): not cytotoxic, agonist: MPLA (TLR4) […]): 0.955

BrC1C(Br)C(Br)C(Br)C(Br)C1Br (centres undefined) (library stock concentration (final ~1000-fold dilution): 2 mM)
NF-kB SEAP reporter activity (RAW-Dual [2]; agonist: LPS (TLR4) 0.1 ug/mL): 1.01
NF-kB SEAP reporter activity (RAW-Dual [2]; [6]): 0.796
NF-kB SEAP reporter activity (RAW-Dual [2]; [7]): 0.716
NF-kB SEAP reporter activity (RAW-Dual [2]; [8]): 0.764

c1cc2c(cc1C1OCC3C(c4ccc5c(c4)OCO5)OCC13)OCO2 (centres undefined)
NF-kB SEAP reporter activity (RAW-Dual [1]; [4]): 0.914
NF-kB SEAP reporter activity (RAW-Dual [1]; [5]): 1.01

c1cc2c(cc1C1OCC3C(c4ccc5c(c4)OCO5)OCC13)OCO2 (centres undefined) (library stock concentration (final ~1000-fold dilution): 10 mM)
NF-kB SEAP reporter activity (RAW-Dual [2]; agonist: LPS (TLR4) 0.1 ug/mL): 1.34
NF-kB SEAP reporter activity (RAW-Dual [2]; [6]): 0.823
NF-kB SEAP reporter activity (RAW-Dual [2]; [7]): 0.803
NF-kB SEAP reporter activity (RAW-Dual [2]; [8]): 1.03

CCC1(c2cccc(O)c2)CCCCN(C)C1.Cl (centres undefined)
NF-kB SEAP reporter activity (RAW-Dual [1]; [4]): 0.945
NF-kB SEAP reporter activity (RAW-Dual [1]; [5]): 0.95

CCC1(c2cccc(O)c2)CCCCN(C)C1.Cl (centres undefined) (library stock concentration (final ~1000-fold dilution): 10 mM)
NF-kB SEAP reporter activity (RAW-Dual [2]; agonist: LPS (TLR4) 0.1 ug/mL): 0.882
NF-kB SEAP reporter activity (RAW-Dual [2]; [6]): 0.856
NF-kB SEAP reporter activity (RAW-Dual [2]; [7]): 0.889
NF-kB SEAP reporter activity (RAW-Dual [2]; [8]): 1.05

CCC1(O)C(=O)OCc2c1cc1n(c2=O)Cc2cc3ccccc3nc2-1 (centres undefined) (library stock concentration (final ~1000-fold dilution): 2 mM)
NF-kB SEAP reporter activity (RAW-Dual [2]; agonist: LPS (TLR4) 0.1 ug/mL): 4.12

C=CC1CN2CCC3(C(=O)Nc4ccccc43)C2CC1/C(=C\OC)C(=O)OC (centres undefined)
NF-kB SEAP reporter activity (RAW-Dual [1]; [4]): 0.91
NF-kB SEAP reporter activity (RAW-Dual [1]; [5]): 1.1

C=CC1CN2CCC3(C(=O)Nc4ccccc43)C2CC1/C(=C\OC)C(=O)OC (centres undefined) (library stock concentration (final ~1000-fold dilution): 10 mM)
NF-kB SEAP reporter activity (RAW-Dual [2]; agonist: LPS (TLR4) 0.1 ug/mL): 0.951
NF-kB SEAP reporter activity (RAW-Dual [2]; [6]): 0.904
NF-kB SEAP reporter activity (RAW-Dual [2]; [7]): 0.882
NF-kB SEAP reporter activity (RAW-Dual [2]; [8]): 0.928

c1ccc2c(c1)[I+]c1ccccc1-2
NF-kB SEAP reporter activity (RAW-Dual [1]; library stock concentration (final ~1000-fold dilution): 10 mM, cytotoxicity flag (confluency mask): cytotoxic (confluency <70% of control), agonist: Imiquimod (TLR7) […]): 0.708
NF-kB SEAP reporter activity (RAW-Dual [1]; library stock concentration (final ~1000-fold dilution): 10 mM, cytotoxicity flag (confluency mask): cytotoxic (confluency <70% of control), agonist: MPLA (TLR4) […]): 1.14
NF-kB SEAP reporter activity (RAW-Dual [1]; [4]): 0.411
NF-kB SEAP reporter activity (RAW-Dual [1]; [5]): 1.16

c1ccc2c(c1)[I+]c1ccccc1-2 (library stock concentration (final ~1000-fold dilution): 10 mM)
NF-kB SEAP reporter activity (RAW-Dual [2]; agonist: LPS (TLR4) 0.1 ug/mL): 0.512
NF-kB SEAP reporter activity (RAW-Dual [2]; [6]): 0.404
NF-kB SEAP reporter activity (RAW-Dual [2]; [7]): 0.193
NF-kB SEAP reporter activity (RAW-Dual [2]; [8]): 0.278
NF-kB SEAP reporter activity (RAW-Dual [3]; agonist: LPS (TLR4) 0.1 ug/mL): 0.328
NF-kB SEAP reporter activity (RAW-Dual [3]; [6]): 0.428
NF-kB SEAP reporter activity (RAW-Dual [3]; [7]): 0.176
NF-kB SEAP reporter activity (RAW-Dual [3]; [8]): 0.338

CCC1=CC2CN3CCc4c([nH]c5ccccc45)C(C(=O)OC)(C2)C13 (centres undefined)
NF-kB SEAP reporter activity (RAW-Dual [1]; [4]): 1.03
NF-kB SEAP reporter activity (RAW-Dual [1]; [5]): 1.11

CCC1=CC2CN3CCc4c([nH]c5ccccc45)C(C(=O)OC)(C2)C13 (centres undefined) (library stock concentration (final ~1000-fold dilution): 10 mM)
NF-kB SEAP reporter activity (RAW-Dual [2]; agonist: LPS (TLR4) 0.1 ug/mL): 1.04
NF-kB SEAP reporter activity (RAW-Dual [2]; [6]): 1.06
NF-kB SEAP reporter activity (RAW-Dual [2]; [7]): 0.935
NF-kB SEAP reporter activity (RAW-Dual [2]; [8]): 1.03

CCC1(c2ccc(N)cc2)CCC(=O)NC1=O (centres undefined) (library stock concentration (final ~1000-fold dilution): 10 mM)
NF-kB SEAP reporter activity (RAW-Dual [2]; agonist: LPS (TLR4) 0.1 ug/mL): 1.04
NF-kB SEAP reporter activity (RAW-Dual [2]; [6]): 1.03
NF-kB SEAP reporter activity (RAW-Dual [2]; [7]): 1.02
NF-kB SEAP reporter activity (RAW-Dual [2]; [8]): 1.1

CCC1(c2ccc(N)cc2)CCC(=O)NC1=O (centres undefined)
NF-kB SEAP reporter activity (RAW-Dual [1]; [4]): 0.947
NF-kB SEAP reporter activity (RAW-Dual [1]; [5]): 1.03

Cl.N=C(N)NN (library stock concentration (final ~1000-fold dilution): 10 mM)
NF-kB SEAP reporter activity (RAW-Dual [2]; agonist: LPS (TLR4) 0.1 ug/mL): 1.04
NF-kB SEAP reporter activity (RAW-Dual [2]; [6]): 1.23
NF-kB SEAP reporter activity (RAW-Dual [2]; [7]): 0.999
NF-kB SEAP reporter activity (RAW-Dual [2]; [8]): 0.942

Cl.N=C(N)NN
NF-kB SEAP reporter activity (RAW-Dual [1]; [4]): 1.1
NF-kB SEAP reporter activity (RAW-Dual [1]; [5]): 1.33

CCC12C=CCN3CCC4(c5ccc(OC)cc5N(C)C4C(O)(C(=O)OC)C1OC(C)=O)C32 (centres undefined)
NF-kB SEAP reporter activity (RAW-Dual [1]; [4]): 0.713
NF-kB SEAP reporter activity (RAW-Dual [1]; [5]): 0.992

CCC12C=CCN3CCC4(c5ccc(OC)cc5N(C)C4C(O)(C(=O)OC)C1OC(C)=O)C32 (centres undefined) (library stock concentration (final ~1000-fold dilution): 10 mM)
NF-kB SEAP reporter activity (RAW-Dual [2]; agonist: LPS (TLR4) 0.1 ug/mL): 1.1
NF-kB SEAP reporter activity (RAW-Dual [2]; [6]): 0.985
NF-kB SEAP reporter activity (RAW-Dual [2]; [7]): 0.859
NF-kB SEAP reporter activity (RAW-Dual [2]; [8]): 1.02

Br.NCCc1cc(O)c(O)cc1O
NF-kB SEAP reporter activity (RAW-Dual [1]; [5]): 1.08

Br.NCCc1cc(O)c(O)cc1O (library stock concentration (final ~1000-fold dilution): 10 mM)
NF-kB SEAP reporter activity (RAW-Dual [2]; agonist: LPS (TLR4) 0.1 ug/mL): 1.94
NF-kB SEAP reporter activity (RAW-Dual [2]; [6]): 0.853
NF-kB SEAP reporter activity (RAW-Dual [2]; [7]): 1.06
NF-kB SEAP reporter activity (RAW-Dual [2]; [8]): 0.83
